Laboratory results from PMC4336329 (PLoS ONE, 2015).
Among all 310,000 compounds or so, about 14,000 (4.5%) showed an effect of 50% or more. Effects have a minus sign here. Some of the results follow.

Biological target: human ether-à-go-go-related gene (hERG) potassium channel (human, UniProt Q12809)
Test: primary screen, population patch clamp on CHO cells stably expressing hERG
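Note: peak tail current of the secondary pulse compared with the same well before compound.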

Chain of human ether-à-go-go-related gene (hERG) potassium channel (Q12809 whole entry, looked up): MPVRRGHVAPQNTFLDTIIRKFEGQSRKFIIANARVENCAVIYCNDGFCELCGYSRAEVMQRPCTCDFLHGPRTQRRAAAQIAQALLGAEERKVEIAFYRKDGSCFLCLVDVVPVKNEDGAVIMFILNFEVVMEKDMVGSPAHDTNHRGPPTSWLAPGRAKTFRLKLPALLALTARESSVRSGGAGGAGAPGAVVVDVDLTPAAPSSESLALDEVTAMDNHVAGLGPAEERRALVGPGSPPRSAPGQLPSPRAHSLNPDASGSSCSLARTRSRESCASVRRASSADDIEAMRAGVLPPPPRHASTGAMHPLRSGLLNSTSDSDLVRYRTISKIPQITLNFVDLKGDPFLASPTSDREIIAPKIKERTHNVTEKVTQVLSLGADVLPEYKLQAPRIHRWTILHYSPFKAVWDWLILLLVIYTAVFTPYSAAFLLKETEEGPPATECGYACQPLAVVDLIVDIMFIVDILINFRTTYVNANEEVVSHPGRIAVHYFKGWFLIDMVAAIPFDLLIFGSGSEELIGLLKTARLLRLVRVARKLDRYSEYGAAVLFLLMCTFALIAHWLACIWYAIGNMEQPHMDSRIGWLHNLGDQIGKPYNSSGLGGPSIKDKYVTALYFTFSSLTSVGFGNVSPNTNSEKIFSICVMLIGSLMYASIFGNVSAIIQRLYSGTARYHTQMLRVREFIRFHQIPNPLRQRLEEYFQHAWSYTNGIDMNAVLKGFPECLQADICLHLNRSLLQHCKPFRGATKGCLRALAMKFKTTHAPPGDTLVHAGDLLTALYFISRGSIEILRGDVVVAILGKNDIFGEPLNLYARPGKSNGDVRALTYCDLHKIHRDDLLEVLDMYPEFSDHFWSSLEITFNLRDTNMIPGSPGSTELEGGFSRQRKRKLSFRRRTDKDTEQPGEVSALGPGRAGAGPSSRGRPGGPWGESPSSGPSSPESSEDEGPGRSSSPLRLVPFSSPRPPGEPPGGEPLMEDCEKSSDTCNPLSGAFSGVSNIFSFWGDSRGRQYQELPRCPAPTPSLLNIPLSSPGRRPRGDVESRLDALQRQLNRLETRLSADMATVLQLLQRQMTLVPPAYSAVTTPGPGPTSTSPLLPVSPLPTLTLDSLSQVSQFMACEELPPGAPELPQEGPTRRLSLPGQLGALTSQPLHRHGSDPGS

| SMILES | hERG current change (%, negative = inhibition) at 10uM |
| --- | --- |
| COc1ccc(-n2cnnc2SCC(=O)N2CCN(S(=O)(=O)c3ccccc3)CC2)cc1 | -30.8% |
| CC(=O)Nc1ccc(NC(=O)CSc2nc(=O)n3cccc(C)c3n2)cc1 | 8.14% |
| CN(CC(=O)Nc1ccc(F)cc1)C(=O)COC(=O)Cc1c(F)cccc1Cl | -11.5% |
| CC(Cl)C(=O)c1c[nH]c2ccccc12 (centres unmarked) | 14.1% |
| COc1ccc(/C=C/C(=O)NCCc2ccc(S(N)(=O)=O)cc2)cc1 | 3.55% |
| COC(=O)[C@@H](NC(=O)c1ccc(OC2CCN(Cc3ccccn3)CC2)cc1)C(C)C | 6.56% |
| COc1ccc2c(CC(=O)Nc3ccc(OC)c(NS(=O)(=O)c4ccc(F)cc4)c3)coc2c1 | 15.9% |
| CC(C)CCOc1ccc(NC(=O)C2OC3OC(C)(C)OC3C3OC(C)(C)OC23)cc1 (centres unmarked) | 20.5% |
| CCc1cc2c(=O)c(-c3nc4ccccc4n3C)c(CCCC(=O)O)oc2cc1OC(=O)C(C)(C)C | 16.6% |
| Cc1ccc(S(=O)(=O)NC(=O)NCc2ccc(Cl)cc2)cc1 | 9.31% |
| CC(C)(C)n1nc2c(c1NC(=O)c1ccc(S(=O)(=O)N3CCCC3)cc1)CS(=O)C2 (centres unmarked) | 9.99% |
| Cc1onc(-c2ccc(Cl)cc2)c1-c1ccnc(SCC(=O)Nc2cc(Cl)cc(Cl)c2)n1 | 0.804% |
| CC(=O)Nc1sc2c(c1C(c1cccc(Cl)c1)N1CCN(CCO)CC1)CCCC2 (centres unmarked) | -46.8% |
| COc1ccc(CCn2c(C)cc(C(=O)CSc3nnnn3-c3ccccc3)c2C)cc1OC | -2.54% |
| Cc1cc2c(SCC(=O)NC3CCCC3)ncnc2s1 | 1.04% |
| Cc1ccc(C(=O)N(Cc2nc3ccccc3c(=O)[nH]2)C2CCCC2)cc1 | 0.599% |
| CCc1ccc(Nc2ccc(S(=O)(=O)N3CCOCC3)cc2[N+](=O)[O-])cc1 | -13% |
| COc1cc(CNCc2cccnc2)ccc1OCc1ccccc1.Cl | -21.8% |
| CCCC(=O)NCc1nc2ccccc2n1CC(=O)c1ccccc1 | -18.1% |
| COc1ccc(/C=N\NC(=O)C2CCCC2)cc1Br | 5.48% |
| COc1cccc(-c2c(-c3cc(OC)cc(OC)c3)n(C)c3ccc(-c4cnc(OC)nc4)cc23)c1 | 20.1% |
| Brc1ccc(-c2nnc3ccc(Nc4ccccc4)nn23)cc1 | 4.22% |

| SMILES | hERG current change (%, negative = inhibition) at 10uM |
| --- | --- |
| CC(C)c1ccc(Nc2ncccc2C(=O)O)cc1 | 10.3% |
| CC(=O)NCCCc1nc2ccccc2n1Cc1ccccc1F | -8.31% |
| CCOC(=O)c1cccc(NC(=O)CC2Oc3ccccc3NC2=O)c1 (centres unmarked) | 5.27% |
| COc1ccc(-c2nnsc2N2C(=O)c3ccccc3C2=O)cc1 | 12.7% |
| c1ccc(C2CC3CC(c4ccco4)N2O3)cc1 (centres unmarked) | 10.9% |
| COc1ccc(-n2c3c(cc(C(=O)NCC(=O)c4ccccc4)c2=O)C(=O)CC(C)(C)C3)cc1 | 1.25% |
| COc1cccc(N2CCN(C(=S)Nc3ccccc3OC)CC2)c1 | 16.1% |
| CCOC(=O)CSC1=C(C#N)C(c2ccccc2OC)CC(=O)N1 (centres unmarked) | -7.41% |
| O=c1[nH]nc(-c2ccc(OCc3ccc(Cl)cc3Cl)cc2)o1 | 20.1% |
| CCCC(=O)Nc1ccc(-c2csc(NNC(C)=O)n2)cc1 | 1.93% |
| COc1ccccc1NC(=O)C(C)OC(=O)CCNS(=O)(=O)c1cccc(C(F)(F)F)c1 (centres unmarked) | -19.4% |
| Cc1ccc(-c2cc(-c3ccccc3)cc(-c3ccccc3)[n+]2-c2ccc(C(=O)O)cc2)cc1.[O-][Cl+3]([O-])([O-])[O-] | 4.17% |
| COc1ccc(CN(C(=O)c2cccs2)c2ccccc2C(=O)O)cc1 | -7.68% |
| Cc1ccc2c(c1)c1c(n2CC(O)Cn2c(C)nc3ccccc32)/C(=N\O)CCC1 (centres unmarked) | 15.4% |
| Cn1c(=O)c2[nH]c(N=Nc3ccc(N)cc3N)nc2n(C)c1=O | 28.7% |
| c1ccc(CSc2cc3ccccc3[nH]2)cc1 | 17.9% |
| COc1cc(Nc2cc(C)nc3ncnn23)cc(OC)c1OC | 11% |
| CN1CCN(Cc2cc(=O)n3ccsc3n2)CC1 | 5.23% |
| CCC(=O)c1cn([C@@H](CCC(OC)OC)CC(=O)OC(C)(C)C)cc1CC | -0.00062% |
| COc1cc(OC)cc(-c2nc3nc(C)c(CCC(=O)NCc4ccco4)c(C)n3n2)c1 | 1.44% |
| C/C(=N\NC(=O)c1c(Cl)cnn1C)c1cccc(NC(=O)COc2ccccc2)c1 | -13.1% |
| COc1ccccc1N1CCN(CCCCOc2ccc(C)cc2C)CC1.O=C(O)C(=O)O | -50.3% |

| SMILES | hERG current change (%, negative = inhibition) at 10uM |
| --- | --- |
| NC(=O)CSc1oc(-c2ccco2)nc1S(=O)(=O)c1ccc(F)cc1 | 8.47% |
| Cc1n[nH]c(C)c1N1C(=O)c2cccc3c(N4CCCCCC4)ccc(c23)C1=O | -21.5% |
| CC(C)OCCCNC(=O)Nc1cccc2ccccc12 | -8.38% |
| CC(C)Cc1nc2oc3c(N4CCN(CCO)CC4)ncnc3c2c2c1CCCC2 | -20.7% |
| Cc1ccc(NC(=O)c2cccc(OCc3c(C)noc3C)c2)cc1 | -20.5% |
| COc1ccc(CC(=O)N/N=C(\C)c2cccnc2)cc1OC | 10.2% |
| COc1ccc(C2=Nn3c(nnc3-c3ccncc3)SC2)cc1OC | -70.8% |
| CC(C)(C)c1ccc(C(=O)Nc2ccc(Oc3cccnc3)nc2)cc1 | -61.2% |
| COc1ccc(/C=C2\CCCC3C2=NN(C(=O)CSc2ncn[nH]2)C3c2ccc(OC)cc2)cc1 (centres unmarked) | -1.73% |
| Cc1sc(NC(=O)CSc2nnnn2C2CCCCC2)c(C#N)c1C | -1.07% |
| O=C1CC(N2CCC(n3c(=O)[nH]c4ccccc43)CC2)C(=O)N1c1ccc(F)cc1 (centres unmarked) | -7.5% |
| Cc1ccccc1NC1(C#N)C(=O)Nc2ccccc21 (centres unmarked) | -2.3% |
| O=C(N/N=C/c1cc2c(c([N+](=O)[O-])c1)OCO2)c1ccncc1 | 19.8% |
| N#Cc1c(-c2cccs2)cc(-c2cccs2)[nH]c1=O | 12.9% |
| Cc1ccc(C)c(NC(=S)c2nc3ccccc3s2)c1 | 14.8% |
| O=C(CCN1C(=O)C2CCCCC2C1=O)Nc1ccc(OC(F)F)cc1 (centres unmarked) | -18.5% |
| COc1cccc(N2CC(C(=O)Nc3nnc(SCc4ccccn4)s3)CC2=O)c1 (centres unmarked) | 12.8% |
| CCN(CC)S(=O)(=O)c1cc(NS(=O)(=O)c2ccc(Cl)c(C(=O)O)c2)ccc1C | 9.4% |
| CCS(=O)(=O)NCC(c1ccco1)N1CCN(c2ccccc2F)CC1 (centres unmarked) | -1.69% |
| COC(=O)C1Cc2ccccc2CN1S(=O)(=O)c1ccc(C)cc1 (centres unmarked) | 1.57% |
| Cc1ccc(S(=O)(=O)N(CCCN2CCCC2=O)Cc2cc3c(C)ccc(C)c3[nH]c2=O)cc1 | -64% |
| Cc1ccc(NC(=O)c2ccc3c(c2)C(=O)N(CC2CCCO2)C3=O)cc1C (centres unmarked) | -18.1% |

| SMILES | hERG current change (%, negative = inhibition) at 10uM |
| --- | --- |
| CCOC(=O)C(=O)Nc1ccc(Oc2ccccc2)cc1 | -28.1% |
| CC(=O)Nc1cccc(NC(=O)CSc2nnc(Cc3cccn3C)n2-c2ccc(C)cc2)c1 | -11.9% |
| COC(=O)C(=CC(=CN(C)C)C=C(C(=O)OC)C(=O)OC)C(=O)OC | 16.2% |
| CN1CCN(C(=O)c2ccc(C(C)(C)C)cc2)CC1 | -1.02% |
| CN(c1ccccc1C(=O)NC1CC2CCC1C2)S(=O)(=O)c1ccccc1 (centres unmarked) | -13.1% |
| N#Cc1c(NC(=O)C2CCCO2)sc2c1CCCCCC2 (centres unmarked) | 1.31% |
| O=[N+]([O-])c1ccc2cn[nH]c2c1 | 15.7% |
| COC(=O)CSc1nnc(-c2ccc3c(c2)OCO3)n1C | 23.2% |
| COc1cc(OC)c2c(c1)OCC1CON(C)C21 (centres unmarked) | -5.12% |
| CC(C)c1ccc(S(=O)(=O)c2cnc(=S)[nH]c2N)cc1 | 23.3% |
| Cc1ccc(Cl)cc1Nc1nc(-c2sc(NC(=O)c3cccc(Cl)c3)nc2C)cs1 | 21.5% |
| COc1ccc(C(=O)NC(=S)NNC(=O)c2c(-c3ccccc3)noc2C)cc1OC | 5.92% |
| CCN1CCc2nc(NC(=O)c3ccccc3)sc2C1 | 4.94% |
| CC1CCN(C(=O)COC(=O)C2CCN(S(=O)(=O)c3ccc(Cl)c(C(F)(F)F)c3)CC2)CC1 | -47.7% |
| CCCc1nn(-c2ccccc2)c2c1C(c1cccs1)C(C#N)=C(N)O2 (centres unmarked) | -7.93% |
| COc1cccc(OC)c1C(=O)N1CC(C)OC(C)C1 (centres unmarked) | 16.5% |
| CC(NS(=O)(=O)OCC(Cl)(Cl)Cl)c1ccccc1 (centres unmarked) | 9.74% |
| CCc1ccccc1NC(=O)CN(c1ccc(OC)cc1OC)S(=O)(=O)c1ccccc1[N+](=O)[O-] | 11.1% |
| O=C1C(Cl)=C(NC2CCCCC2)C(=O)N1c1ccc(Cl)cc1 | -13.1% |
| N#Cc1c2n(c3c(N)ncnc13)CCCCC2 | 1.81% |
